Assay results taken from the supplement of paper PMC6531468.
The other results are listed elsewhere or left out. These are enrichments in a pooled selection; single values are uncertain. Each score is taken over the longer molecules that contain the sequence shown.

Key:
Experiment in all cases: 6-mer SELEX enrichment z-score vs GST control; IMP3 is the RNA-binding protein IGF2BP3; higher = more enriched by binding
[1] = test system: IMP3 KH1-4; details: construct: KH1-4 (164-579); SELEX round: R4
Experimental: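 SELEX-seq with GST-tagged IMP3 KH1-4 (Pro164-Lys579) and an N40 RNA pool, round 4. 6-mer z-score of sequence-tag enrichment normalised to the corresponding GST SELEX round; RNA k-mers written as DNA (T for U).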

[2] = molecular target: IMP3 full-length (UniProt O00425); details: construct: FL IMP3 (1-579); SELEX round: R4
Experimental: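 SELEX-seq with GST-tagged full-length IMP3 and an N40 RNA pool, round 4. Each 6-mer is scored as an enrichment z-score of sequence tags containing it, normalised to the matching GST SELEX round. RNA written as DNA (T = U).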

[3] = test system: IMP3 KH1-2; details: construct: KH1-2 (164-376); SELEX round: R4
Experimental: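 SELEX-seq with GST-tagged IMP3 KH1-2 (Pro164-Phe376) and an N40 RNA pool, round 4 (stringent 300/600 mM KCl washes). 6-mer z-score of sequence-tag enrichment normalised to the corresponding GST SELEX round; RNA k-mers written as DNA (T for U).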

[4] = test system: IMP3 KH3-4; details: construct: KH3-4 (377-579); SELEX round: R4
Experimental: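 SELEX-seq with GST-tagged IMP3 KH3-4 (Pro377-Lys579) and an N40 RNA pool, round 4. 6-mer z-score of sequence-tag enrichment normalised to the corresponding GST SELEX round; RNA k-mers written as DNA (T for U).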

[5] = test system: IMP3 RRM1-2; details: construct: RRM1-2 (1-163); SELEX round: R2
Experimental: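 SELEX-seq with GST-tagged IMP3 RRM1-2 (Met1-Asn163) and an N40 RNA pool, round 2. 6-mer enrichment z-score normalised to GST SELEX. RNA written as DNA (T = U).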

IMP3 RRM1-2, sequence (chain, as listed by the source): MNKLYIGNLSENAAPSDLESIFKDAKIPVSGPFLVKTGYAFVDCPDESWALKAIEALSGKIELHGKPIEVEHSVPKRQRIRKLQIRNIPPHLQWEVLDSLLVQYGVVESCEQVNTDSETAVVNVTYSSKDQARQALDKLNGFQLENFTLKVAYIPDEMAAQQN
IMP3 KH1-4, sequence (chain, as listed by the source): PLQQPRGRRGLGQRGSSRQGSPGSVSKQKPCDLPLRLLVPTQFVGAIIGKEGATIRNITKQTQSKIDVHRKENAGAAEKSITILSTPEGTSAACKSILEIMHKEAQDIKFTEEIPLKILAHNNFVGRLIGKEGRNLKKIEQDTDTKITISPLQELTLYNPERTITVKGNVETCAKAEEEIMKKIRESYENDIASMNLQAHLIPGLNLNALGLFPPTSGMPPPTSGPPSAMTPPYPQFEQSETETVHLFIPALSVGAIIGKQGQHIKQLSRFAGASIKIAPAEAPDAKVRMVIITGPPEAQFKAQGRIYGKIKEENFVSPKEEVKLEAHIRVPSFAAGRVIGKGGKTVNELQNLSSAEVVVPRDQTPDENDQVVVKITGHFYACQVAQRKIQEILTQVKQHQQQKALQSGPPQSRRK
IMP3 KH3-4, sequence (chain, as listed by the source): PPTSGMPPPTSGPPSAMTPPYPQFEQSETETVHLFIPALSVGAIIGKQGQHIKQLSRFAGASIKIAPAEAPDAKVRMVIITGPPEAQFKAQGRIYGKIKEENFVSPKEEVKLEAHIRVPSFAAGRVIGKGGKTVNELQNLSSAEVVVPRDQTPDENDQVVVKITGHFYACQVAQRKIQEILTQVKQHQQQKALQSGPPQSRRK
IMP3 KH1-2, sequence (chain, as listed by the source): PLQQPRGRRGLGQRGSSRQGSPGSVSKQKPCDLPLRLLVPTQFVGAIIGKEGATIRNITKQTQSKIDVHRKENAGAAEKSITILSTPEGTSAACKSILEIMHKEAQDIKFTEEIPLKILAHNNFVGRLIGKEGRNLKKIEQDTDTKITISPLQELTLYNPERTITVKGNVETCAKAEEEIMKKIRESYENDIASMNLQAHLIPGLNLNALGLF
UniProt O00425, sequence (O00425 whole entry): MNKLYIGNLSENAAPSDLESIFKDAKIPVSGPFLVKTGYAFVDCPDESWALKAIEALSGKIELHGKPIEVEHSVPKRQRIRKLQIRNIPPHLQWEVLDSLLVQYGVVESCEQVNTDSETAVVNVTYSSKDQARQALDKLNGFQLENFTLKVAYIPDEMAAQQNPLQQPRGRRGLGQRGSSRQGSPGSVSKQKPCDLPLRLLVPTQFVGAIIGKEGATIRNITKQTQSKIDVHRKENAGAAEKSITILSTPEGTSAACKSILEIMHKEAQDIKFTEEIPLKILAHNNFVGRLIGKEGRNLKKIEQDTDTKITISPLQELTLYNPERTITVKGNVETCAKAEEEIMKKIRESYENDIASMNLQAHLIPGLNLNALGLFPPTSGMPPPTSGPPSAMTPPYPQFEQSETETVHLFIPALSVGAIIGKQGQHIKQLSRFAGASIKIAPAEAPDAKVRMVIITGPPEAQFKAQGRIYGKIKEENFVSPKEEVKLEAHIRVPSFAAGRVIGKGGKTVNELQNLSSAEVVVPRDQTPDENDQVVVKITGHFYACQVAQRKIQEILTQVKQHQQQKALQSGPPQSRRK

Sequence	6-mer SELEX enrichment z-score [1]	6-mer SELEX enrichment z-score [2]	6-mer SELEX enrichment z-score [3]	6-mer SELEX enrichment z-score [4]	6-mer SELEX enrichment z-score [5]
CGGGGG	0.757	0.555	1.68	0.85	–
CAAGTG	-0.333	-0.042	-0.445	-0.315	–
AGGGAG	1.1	0.244	1.14	1.08	–
TAAATC	0.452	-0.197	0.448	0.507	–
CTTATT	1.07	0.304	0.925	1.2	–
CTAGGT	-0.107	0.071	-0.072	0.04	–
GTCGGA	0.948	1.14	0.681	0.918	–
TCTGAT	0.479	0.229	0.46	0.436	–
AGGTGT	-0.117	0.057	-0.047	0.122	–
GGACGG	0.703	0.687	0.657	0.445	–
TCAAAC	-0.619	0.122	-0.383	-0.911	–
GAATCG	-0.663	-0.537	-0.767	-0.603	–
TAATTT	1.26	0.278	1.38	2.16	–
ACCATA	0.924	0.536	1.07	0.61	–
GTACGT	-0.458	-0.24	-0.477	-0.404	–
GTTACG	0.214	-0.051	0.026	0.004	–
GGTGCG	0.165	0.349	0.258	0.209	–
ATGACG	0.091	-0.108	-0.156	0.08	–
TTAAGT	0.374	-0.058	0.212	0.668	–
TCTGTA	0.287	0.161	–	0.249	–
AGAGCT	-1.3	-0.571	-1.13	-1.06	–
TCTCGG	-0.348	0.316	-0.219	-0.081	–
GACCTC	-0.974	-0.796	-0.839	-1.18	–
GCCAAA	-1.2	-1.2	-1.15	-1.08	–

Sequence	6-mer SELEX enrichment z-score [1]	6-mer SELEX enrichment z-score [2]	6-mer SELEX enrichment z-score [3]	6-mer SELEX enrichment z-score [4]	6-mer SELEX enrichment z-score [5]
TTGGAC	-0.36	-0.162	-0.337	-0.382	–
TTGATC	0.148	-0.058	–	0.196	–
AGAAAA	0.045	-1.78	–	1.51	–
GGCATA	1.31	1.64	0.71	1.33	–
TTATAT	1.5	0.494	1.39	2.03	–
GCCCCG	-0.885	-0.138	-0.471	-1.29	–
CCTCGT	-0.929	-0.468	-0.801	-0.83	–
CCGTTC	0.128	0.297	0.326	-0.24	–
CTCCCT	0.03	-0.447	0.046	-0.399	–
TGTTTG	0.136	-0.103	0.016	0.247	–
GCAATC	0.029	0.905	-0.034	-0.212	–
CTGCTG	0.31	-0.004	0.314	-0.027	–
ATGTGA	1.12	-0.267	0.574	1.17	–
CTCTTA	0.312	-0.008	0.343	0.294	–
GCGACC	-0.997	-0.11	-0.871	-1.35	–
CGTCGA	-1.02	-0.162	–	-0.866	–
GATATA	1.62	0.17	1.43	2.32	–
TACTCG	-0.855	-0.382	–	-0.712	–
GCTGAA	-0.625	-0.575	-0.543	-0.506	–
ATCCGG	-0.206	0.19	-0.226	-0.378	–
CGGGAT	-0.184	0.098	-0.134	-0.049	–
TATGCG	0.061	-0.217	-0.045	0.316	–
GGACAT	0.995	0.773	0.633	0.758	–
AATTCT	0.607	0.02	0.589	0.616	–

Sequence	6-mer SELEX enrichment z-score [1]	6-mer SELEX enrichment z-score [2]	6-mer SELEX enrichment z-score [3]	6-mer SELEX enrichment z-score [4]	6-mer SELEX enrichment z-score [5]
TCAACG	-0.917	0.093	-1.04	-1.04	–
GGGAAA	0.374	-0.416	0.413	0.726	–
GACCGG	-0.345	-0.041	-0.304	-0.553	–
TGTCGG	0.728	1.33	0.653	0.744	–
GATCTC	-0.44	-0.055	-0.352	-0.449	–
GCTAAG	-0.16	-0.15	-0.182	0.058	–
GAGTAT	-0.239	-0.231	-0.262	0.068	–
AATACT	0.597	-0.429	0.762	0.883	–
GCTGAG	-0.747	-0.277	-0.634	-0.568	–
CAGCTC	-0.124	0.598	-0.036	-0.333	–
TGTGCC	–	-0.396	-0.525	-0.812	-0.057
CCGGCA	–	2.15	0.712	0.487	0.186
TGATCA	–	0.665	0.625	0.73	0.686
AGGCTC	–	0.461	0.022	0.05	0.49
GTGAAC	–	-0.484	-0.372	-0.282	-0.672
GTTACT	–	-0.151	-0.009	0.032	0.246
GTCGAA	–	-0.426	-0.735	-0.561	-0.44
GATAAA	–	-0.947	0.788	1.89	-1.65
CCGAGT	–	-0.937	-1.73	-1.75	-0.429
ATGCGT	–	-0.732	-1.25	-0.946	0.103
AGTATC	–	-0.174	-0.512	-0.43	0.137
AAACCG	–	-1.87	-1.33	-1.95	-2.3
ATCGCA	–	0.871	0.741	0.416	0.27
ACAGGA	–	1.11	1.24	1.09	0.318

Sequence	6-mer SELEX enrichment z-score [1]	6-mer SELEX enrichment z-score [2]	6-mer SELEX enrichment z-score [3]	6-mer SELEX enrichment z-score [4]	6-mer SELEX enrichment z-score [5]
AGCGTG	–	-2.71	-3.74	-3.49	-0.102
CTCAAG	–	-0.475	-1.07	-1.05	0.129
ACTCTG	–	-0.277	-0.347	-0.52	-0.211
AGAGAG	–	-0.043	0.321	0.565	-0.58
AAATAC	–	-0.781	0.863	1.12	-1.18
ATTTGT	–	0.048	0.419	0.785	0.299
AAGGGG	–	0.145	1.39	1.38	-0.237
AAGCTA	–	-0.69	-0.63	-0.379	-0.423
GCAGAG	–	0.687	0.09	0.025	0.07
TGCTGA	–	-0.468	-0.247	-0.26	-0.186
TCAAAA	–	-0.81	-0.798	-0.825	-0.146
AGTACC	–	-0.411	-1.19	-1.36	-0.156
ACATAG	–	1.68	1.12	1.37	1.3
CTAGCG	–	-0.889	-1.34	-1.21	-0.028
CATACT	–	0.677	1	0.756	0.747
ACAGCT	–	0.52	0.166	-0.151	0.401
GGATTA	–	0.012	0.496	1.06	-0.204
CTACGA	–	-0.863	-0.765	-0.863	-0.618
CTGTTG	–	-0.149	-0.071	-0.113	0.144
CTGCGT	–	-0.859	-1.4	-1.24	0.194
GCTACC	–	-0.148	-0.318	-0.546	-0.013
TGGGGT	–	0.365	0.524	0.623	0.469
TACCCG	–	-0.903	-1.31	-1.61	-0.327
GTGACC	–	-0.701	-0.834	-1.1	-0.535

Sequence	6-mer SELEX enrichment z-score [1]	6-mer SELEX enrichment z-score [2]	6-mer SELEX enrichment z-score [3]	6-mer SELEX enrichment z-score [4]	6-mer SELEX enrichment z-score [5]
GCCTCA	–	-0.043	-0.806	-0.954	0.187
CCCTGG	–	-0.526	-0.67	-0.97	-0.374
TGACAC	–	0.244	0.355	0.069	0.091
ATTTTA	–	0.42	1.4	2.32	0.21
AGTCGT	–	0.202	-0.047	0.062	0.112
GAGTAC	–	-0.086	-0.634	-0.556	-0.21
AGGTAC	–	0.092	-0.553	-0.535	0.052
GTCCCT	–	-0.252	-0.304	-0.53	-0.091
GAACAA	–	-0.052	0.542	0.759	-0.743
TGCCGG	–	0.228	-0.164	-0.242	-0.166
CTACCA	–	-0.529	-0.25	-0.588	0.037
AATGTG	–	-0.615	0.212	0.916	-0.646
TGCCTA	–	-0.697	-0.648	-0.671	-0.177
TGTTTT	–	0.02	0.223	0.461	0.408
GTACAG	–	0.492	0.204	0.135	0.001
CAGCCC	–	0.087	-0.268	-1.36	-0.06
ACAGTT	–	0.614	0.56	0.343	0.418
AAATTG	–	-1.03	-0.19	0.594	-1.1
TACAGC	–	0.561	0.254	0.001	0.403
ACTCCG	–	-0.544	-0.578	-1.19	-0.455
CAGTAC	–	0.823	0.098	-0.3	0.514
ATCTTT	–	0.387	0.507	0.593	0.425
TACGGC	–	1.69	1.05	1.53	0.156
TTAGCC	–	-0.269	-0.007	-0.09	-0.133
